Data taken from the RNAGym collection of RNA variant scans (doi:10.1093/nar/gkz1192).
The source gives no read counts; variants with many changes may rest on few reads.

B1: CPEB3 Ribozyme (parent)
chain: UAACAGGGGGCCACAGCAGAAGCGUUCACGUCGCAGCCCCUGUCAGAUUCUGGUGAAUCUGCGAAUUCUGCUGUAUAUCUC

Variants of: B1
Experiment: self-cleavage, relative activity (ratio to wild type); higher = more cleavage; in vitro, sequencing
Procedure, shortened: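 Libraries of CPEB3 self-cleaving ribozyme mutants came from rounds of error-prone PCR and carried barcodes, which DNA sequencing matched to variants. In vitro transcription used T7 RNA polymerase at 37°C for 5 hours, with a further 15 min in DNase I before EDTA stopped the reaction; the ribozymes cleaved during both steps. The RNA was reverse transcribed with template switching and sequenced on Illumina. Relative activity is the cleaved/total read fraction of a variant divided by that of the unmutated ribozyme, averaged over three batches with at least 5 reads.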

Variant	self-cleavage
UAACAGGGGGCCACAGCAGAAGCGUUCACGUCGCAGCCCCAGUCAGAAUCUGGCGAGUCUGCGAAUUCAGCUGCAUAUCUC [U41A U48A U54C A57G U69A U74C]	0.04
UAACAGGGGGCCACAGCAGAAGCGUUCACGUCGCAGCCCCAGCCAGAUUCUGGUGAAUCUGCGUAUUCUGCUGUAUAUCUC [U41A U43C A64U]	0.15
UAACAGGGGGCCACAGCAGAAGCGUUCACGUCGCAGCCCCAGUCAGAUUCUGGUGAAUCUGCGAAUUCUGCUAUAUACCUC [U41A G73A U78C]	0.41
UAACAGGGGGCCACAGCAGAAGCGUUCACGUCGCAGCCCCAGUCAGAUUCUGUUGAGUCUGCGAAUUCUGCUGCAUAUCUC [U41A G53U A57G U74C]	0.36
UAACAGGGGGCCACAGCAGAAGCGUUCACGUCGCAGCCCCAGCCAGAUUCUGGUGAAUCUGCGAAACCUGCUGUAUAUCUC [U41A U43C U66A U67C]	0.13
UAACAGGGGGCCACAGCAGAAGCGUUCACGUCGCAGCCCCAGCCAUAUUCUGGCGAAUCUGCGAAUUCUGCCGUACAUCUC [U41A U43C G46U U54C U72C U76C]	0.1
UAACAGGGGGCCACAGCAGAAGCGUUCACGUCGCAGCCCCAGUCAGACUCUGGUAAAUCUGCGAACUCUGCUGUAUAUCUC [U41A U48C G55A U66C]	0.11
UAACAGGGGGCCACAGCAGAAGCGUUCACGUCGCAGCCCCAGACAGAUUCUGGUGAAUCUGCGAAUUCCGCCGUAUAUCUC [U41A U43A U69C U72C]	0.09
UAACAGGGGGCCACAGCAGAAGCGUUCACGUCGCAGCCCCAGACAGAUUCUGGUGGAUCUGCGAAUUCAGCUGUACAUCUC [U41A U43A A56G U69A U76C]	0.11
UAACAGGGGGCCACAGCAGAAGCGUUCACGUCGCAGCCCCAGUCAGAUUCUGGUGAAUCUGCUAAUUCUGCUGUAUAUCCC [U41A G63U U80C]	0.49
UAACAGGGGGCCACAGCAGAAGCGUUCACGUCGCAGCCCCAGCCACAUUCUGGUGAAUCUGCGAAUCCUGCCGUAUAUCUC [U41A U43C G46C U67C U72C]	0.33
UAACAGGGGGCCACAGCAGAAGCGUUCACGUCGCAGCCCCAGACAGACUCUGGUGAAUCUGCGAAUUCUGCUGUAUAUCUC [U41A U43A U48C]	0.36
UAACAGGGGGCCACAGCAGAAGCGUUCACGUCGCAGCCCCAGCCAGAUUCUGGUGAAUCUGCGAAUUCUGCCGUAUAUCCC [U41A U43C U72C U80C]	0.43
UAACAGGGGGCCACAGCAGAAGCGUUCACGUCGCAGCCCCAGACAGAUUCUGGUGAAUCUGCGAGUUCUGCUGUAUAUCUC [U41A U43A A65G]	0.17
UAACAGGGGGCCACAGCAGAAGCGUUCACGUCGCAGCCCCAGUCAGAAUCUGGUGAAUCUGCGUAUUCUGCAGUAUAUCUC [U41A U48A A64U U72A]	0.06
UAACAGGGGGCCACAGCAGAAGCGUUCACGUCGCAGCCCCAGACAGAUUCUGGUGAAUCUGCGGGUCCUGCUGUAUAUCUC [U41A U43A A64G A65G U67C]	0.07
UAACAGGGGGCCACAGCAGAAGCGUUCACGUCGCAGCCCCAGCCAGAUUCUGAUGAAUCUGCGAAUUCUGCUGUAUAUCUC [U41A U43C G53A]	0.25

Variant	self-cleavage
UAACAGGGGGCCACAGCAGAAGCGUUCACGUCGCAGCCCCAGCCAGAUUCUGGUGGAUCUGCGAAUUCUGCUGUAUAUCUC [U41A U43C A56G]	0.13
UAACAGGGGGCCACAGCAGAAGCGUUCACGUCGCAGCCCCAGUCAGACUCCGGUGAAUCUGCGUAUUCUGCGGUAUAUCUC [U41A U48C U51C A64U U72G]	0.16
UAACAGGGGGCCACAGCAGAAGCGUUCACGUCGCAGCCCCAGUCAGAUUCUGGUGAAUCUACGAAUUCUGCAGUAUAUCUC [U41A G61A U72A]	0.44
UAACAGGGGGCCACAGCAGAAGCGUUCACGUCGCAGCCCCAGUCAGAUUCUGGUAAACCUGCGAAUUCUGCUGUAUAUCUC [U41A G55A U58C]	0.05
UAACAGGGGGCCACAGCAGAAGCGUUCACGUCGCAGCCCCAGACAGACUCUGGUGAAUCUGUGAAUUCUGCUGUAUAUCUC [U41A U43A U48C C62U]	0.23
UAACAGGGGGCCACAGCAGAAGCGUUCACGUCGCAGCCCCAGCCAGACUCUGGUGAAUCUGCGAAUCCCGCUGUAUAUCUC [U41A U43C U48C U67C U69C]	0.22
UAACAGGGGGCCACAGCAGAAGCGUUCACGUCGCAGCCCCAGCCACAAUCUGUCGAAUCUGCGAAUUCUGCUGUACAUCUC [U41A U43C G46C U48A G53U U54C U76C]	0.15
UAACAGGGGGCCACAGCAGAAGCGUUCACGUCGCAGCCCCAGGCAGGUUCUGGUGAAUCUGCGAACUCUGCUGUAUAUCUC [U41A U43G A47G U66C]	0.26
UAACAGGGGGCCACAGCAGAAGCGUUCACGUCGCAGCCCCAGUCAGAUUCUGGUGAAUCUGCGAAUUCUUCUGUAAAUCUC [U41A G70U U76A]	0.08
UAACAGGGGGCCACAGCAGAAGCGUUCACGUCGCAGCCCCAGACAGACUCUGGUGAACCUGUGAAUUCUCCUGUAUAUCAC [U41A U43A U48C U58C C62U G70C U80A]	0.1
UAACAGGGGGCCACAGCAGAAGCGUUCACGUCGCAGCCCCAGUCAGACUCUGGUGAAUCUGCGAAUUCUUCUGUAUAUCUC [U41A U48C G70U]	0.22
UAACAGGGGGCCACAGCAGAAGCGUUCACGUCGCAGCCCCAGUCAGAUUCUGGUAAAUCUGCGAAUUCUGCUGCAUAUCUC [U41A G55A U74C]	0.3
UAACAGGGGGCCACAGCAGAAGCGUUCACGUCGCAGCCCCAGUCAGAUUCUGGUUAAUCUGCGAACUCUGCCGUAUAGCUC [U41A G55U U66C U72C U78G]	0.04
UAACAGGGGGCCACAGCAGAAGCGUUCACGUCGCAGCCCCAGUCAGAUUCUGGUGAAUCUACGAAUUCCGCCGUAUAUCCC [U41A G61A U69C U72C U80C]	0.17
UAACAGGGGGCCACAGCAGAAGCGUUCACGUCGCAGCCCCAGUCAGACUCAGGUGAAUCUGCGAAUUCUGCUGGAUAACUC [U41A U48C U51A U74G U78A]	0.08
UAACAGGGGGCCACAGCAGAAGCGUUCACGUCGCAGCCCCAGCCGGAUUCUGGUGAAUCUGCGAAUUCUGCUGUAUAUCUC [U41A U43C A45G]	0.18
UAACAGGGGGCCACAGCAGAAGCGUUCACGUCGCAGCCCCAGACAGAUUCUGGUGAAUCUGCGAAUUCUGCUGUCUAUCUC [U41A U43A A75C]	0.23
